Measured values reported in PMC4336329 (PLoS ONE, 2015).
Among all 310,000 compounds or so, about 2,200 (0.71%) showed an effect of 50% or more. Effects have a minus sign here. The list shows a part of the results.

The compounds below were run against human ether-à-go-go-related gene (hERG) potassium channel (human, UniProt Q12809) (assay: primary screen, population patch clamp on CHO cells stably expressing hERG).
human ether-à-go-go-related gene (hERG) potassium channel, sequence (Q12809 whole entry, looked up): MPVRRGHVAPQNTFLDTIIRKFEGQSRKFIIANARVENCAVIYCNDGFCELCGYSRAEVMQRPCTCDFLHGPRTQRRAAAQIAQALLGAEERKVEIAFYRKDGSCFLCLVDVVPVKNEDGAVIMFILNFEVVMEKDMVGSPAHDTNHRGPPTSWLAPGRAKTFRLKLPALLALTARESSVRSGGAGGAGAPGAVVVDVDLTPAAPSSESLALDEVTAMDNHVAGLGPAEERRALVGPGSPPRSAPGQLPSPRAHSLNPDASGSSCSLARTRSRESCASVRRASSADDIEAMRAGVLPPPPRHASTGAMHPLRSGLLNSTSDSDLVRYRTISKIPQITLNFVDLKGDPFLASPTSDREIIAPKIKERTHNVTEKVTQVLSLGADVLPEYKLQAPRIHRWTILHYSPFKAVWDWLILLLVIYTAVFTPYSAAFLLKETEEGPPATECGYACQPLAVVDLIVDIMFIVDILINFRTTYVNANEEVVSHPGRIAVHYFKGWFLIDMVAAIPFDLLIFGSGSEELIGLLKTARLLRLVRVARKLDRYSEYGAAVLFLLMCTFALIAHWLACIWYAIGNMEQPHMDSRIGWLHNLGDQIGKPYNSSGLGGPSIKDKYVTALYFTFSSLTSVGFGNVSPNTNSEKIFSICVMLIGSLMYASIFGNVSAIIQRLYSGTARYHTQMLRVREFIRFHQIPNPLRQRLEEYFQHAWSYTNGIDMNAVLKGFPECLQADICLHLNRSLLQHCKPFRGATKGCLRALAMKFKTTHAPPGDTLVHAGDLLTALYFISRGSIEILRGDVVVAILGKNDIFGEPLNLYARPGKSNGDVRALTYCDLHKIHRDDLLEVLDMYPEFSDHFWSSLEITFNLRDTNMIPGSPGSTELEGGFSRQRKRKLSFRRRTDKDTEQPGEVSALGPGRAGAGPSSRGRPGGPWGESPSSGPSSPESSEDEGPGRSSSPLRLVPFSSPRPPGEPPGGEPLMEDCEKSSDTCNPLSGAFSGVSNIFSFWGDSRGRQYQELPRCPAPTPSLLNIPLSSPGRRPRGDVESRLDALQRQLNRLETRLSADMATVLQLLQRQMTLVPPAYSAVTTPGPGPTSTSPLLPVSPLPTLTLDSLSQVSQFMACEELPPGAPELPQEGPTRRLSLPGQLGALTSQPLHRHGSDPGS

SMILES	hERG current change (%, negative = inhibition) at 1uM
COc1ccc2oc(=O)c(C(=O)C[n+]3cccc(C)c3)cc2c1.[Br-]	9.07%
Cc1ccsc1C(=O)OCC(=O)Nc1cccc(S(=O)(=O)NC2=NCCCCC2)c1	12.8%
Cc1ccc(S(=O)(=O)NC(CC(=O)O)c2ccc(F)cc2)cc1 (stereo not shown)	16.7%
Cc1cc(C)nc(N(C#N)CC(=O)c2ccccc2)n1	-13.1%
O=c1c2ccccc2[nH]c2ccc(O)cc12	5.65%
CCn1ncc(Br)c1C(=O)Nc1sc2c(c1C(N)=O)CCC2	-3.09%
COc1ccc(N2C(=O)CC(NNC(=O)c3cc(C)oc3C)C2=O)cc1 (stereo not shown)	7.52%
O=C(/C=C/c1ccccc1F)c1cccc([N+](=O)[O-])c1	9.22%
O=C1NC(c2ccccc2)Nc2c1sc(=S)n2-c1ccccc1 (stereo not shown)	8.84%
COc1ccc(-n2c(Cc3cccn3C)nnc2SCC(=O)Nc2cccc(C)c2C)cc1	-22.6%
O=c1c2cc(F)ccc2[nH]c(=S)n1CCCN1CCOCC1	5.39%
O=C(c1ccco1)c1n[nH]nc1-c1ccccc1	12%
O=C(NCC1CCCO1)Nc1ccc2c(c1)OCO2 (stereo not shown)	9.06%
Cc1ccc(NC(=O)c2ccc(NCCCN3CCC(C)CC3)c([N+](=O)[O-])c2)c(C)c1	-1.32%
O=c1oc2ccccc2c(Cl)c1CN1CCCCC1	17.4%
C/C(=N\Nc1ccc(S(=O)(=O)N2CCCCC2)cn1)c1ccc(O)cc1	1.48%
O=c1c2ccccc2nc(SCCN2CCCCC2)n1CCc1ccccc1	-10%
CC1C(=O)N(Cc2cccc(F)c2)c2ccccc2N1C(=O)c1ccccc1 (stereo not shown)	14.6%
COCCn1c(C)cc(C(=O)COC(=O)c2ccc3c(c2)NC(=O)CS3)c1C	4.99%
CCOc1ccccc1N1CCN(CC(=O)Nc2ccccc2C(=O)NC2CC2)CC1	-23.5%
CCc1ccc(/C=C2\SC(=S)N(CCCC(=O)Nc3nccs3)C2=O)cc1	8.28%
CC/S(CC1CC1(Cl)Cl)=N\S(=O)(=O)c1ccc(C)cc1 (stereo not shown)	9.13%
COc1ccccc1CN(CC(=O)NCc1ccco1)C(=O)CNS(=O)(=O)c1ccccc1	2.71%
CC(/C=C/C=C/c1ccccc1)=N\NC(=O)c1cccnc1	5.88%
COc1ccc(N2CCN(C(=O)COC(=O)CNC(=O)c3cccc(OC(F)F)c3)CC2)cc1	2.77%
